# PubChem BioAssay AID759 (NMMLSC, 2007)
# The whole screen tested about 190,000 compounds, of which about 270 (0.14%) were called active. Inconclusive results, whose numbers are uncertain, are shown with a selection of clear calls.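 The calls were made as follows: active = GTP binding activity at least 20% away from the 100% baseline, either lowered as inhibitor or raised as activator; inconclusive = flagged as likely green fluorescent, judged across all proteins in the well; inactive = the rest.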
# Target: GTPase HRas (Homo sapiens) (UniProt P01112)
# UniProt P01112, sequence (P01112 whole entry, looked up): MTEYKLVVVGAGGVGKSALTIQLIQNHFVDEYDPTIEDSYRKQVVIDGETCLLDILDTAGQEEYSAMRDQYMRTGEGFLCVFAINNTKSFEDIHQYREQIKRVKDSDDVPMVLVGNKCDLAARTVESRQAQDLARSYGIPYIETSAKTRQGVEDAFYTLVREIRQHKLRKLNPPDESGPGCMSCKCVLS
# Experiment: HRas wt fluorescent GTP binding changes, either direction – biochemical, wildtype, bead-based flow cytometry, multiplex, primary screen (AID 759);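 also: 0% = unlabeled GTP competition control and 100% = no-compound control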
# Conditions: GST-Ras wt beads, Bodipy-FL-GTP binding, at 10 µM, actives lie on both sides
row,SMILES,GTP binding activity
1,Cc1nc(C)n(CC(=O)N2CCCC(C(=O)c3cccc4ccccc34)C2)n1 (configuration not stated),inactive: 98%
2,Cc1ccc(C)c(N2CCN(C(=O)Cn3c(=O)[nH]c4ccsc4c3=O)CC2)c1,inconclusive: 103%
3,COc1ccc(CN=C2NN=C(c3ccccc3)CS2)cc1,inconclusive: 92%
4,c1nc(NCCN2CCOCC2)c2sc3nc(N4CCOCC4)c4c(c3c2n1)CCC4,inconclusive: 89%
5,N#Cc1sc2nc3c(c(-c4cccnc4)c2c1N)CCC3,inconclusive: 99%
6,COc1cc(N2CCCC2)c(OC)cc1/C=C(/C#N)c1cccc(Br)c1,inconclusive: 174%
7,CC(=O)c1sc(Nc2nc(C)cc(C)n2)nc1C,inconclusive: 107%
8,Cc1cc(C(=O)OCC(=O)Nc2c(F)cccc2F)c(C)n1-c1ccccc1,inconclusive: 92%
9,COc1ccc(CC(=O)Nc2ccc(C(=O)Nc3nccs3)cc2)cc1OC,active: 77%
10,CCCCN1CN=C(Nc2nc3ccccc3o2)NC1,inconclusive: 105%
11,Cc1cc(C)n(CC(=O)N/N=C/c2cc(Br)cc([N+](=O)[O-])c2O)n1,inconclusive: 86%
12,N#Cc1cc2c(=O)n3ccccc3nc2n(CCCN2CCOCC2)c1=O,inconclusive: 104%
13,Cc1nn(Cc2cccc(C(=O)Nc3ccn(Cc4ccccc4)n3)c2)c(C)c1[N+](=O)[O-],inconclusive: 96%
14,CCC1CCc2c(n(C)c3ccccc3c2=O)O1 (configuration not stated),inactive: 96%
15,COc1cc(NC(=O)c2cc3ccccc3o2)c(OC)cc1Br,inconclusive: 107%
16,Cc1ccc(S(=O)(=O)Nc2cccc(-c3ccc4nnc(C)n4n3)c2)s1,inactive: 90%
17,O=C(N/N=C/c1ccsc1)c1ccc2ccccc2n1,inactive: 95%
18,CC(C)=CC(=O)OCC(=O)Nc1cc(C)ccc1C,inconclusive: 94%
19,N#Cc1ccc(CSc2nnc3[nH]c(=O)cc(N)n23)cc1,inactive: 99%
20,Cc1cccc2cc(C#N)c(NCCNC(=O)NC3CCCCC3)nc12,inconclusive: 95%
21,CCCOC(=O)NC1CCS(=O)(=O)C1 (configuration not stated),inconclusive: 36%
22,COc1cc2[nH]c(=O)n(CCC(=O)NCCC(C)C)c(=O)c2cc1OC,inactive: 101%
23,Fc1cccc(CSc2ccc3nnc(-c4cccnc4)n3n2)c1,inconclusive: 79%
24,CN(c1ccc(OCC(=O)NCc2cccnc2)cc1)S(=O)(=O)c1ccc(Cl)cc1,inactive: 98%
25,CCN(CC)c1ccc(/C=C2/SC(=O)N(C(C)C)C2=O)o1,inconclusive: 109%

row,SMILES,GTP binding activity
1,CCn1cc(C(=O)N2CC(C)CC(C)C2)c(=O)c2cc(S(=O)(=O)N3CCOCC3)ccc21 (configuration not stated),inconclusive: 96%
2,Cc1n[nH]c(=S)c2nn(-c3ccccc3F)c(C)c12,inconclusive: 103%
3,CCOc1cc(C2Nc3ccccc3C(=O)N2c2ccccc2)ccc1O (configuration not stated),inconclusive: 109%
4,O=C(Nc1ccccc1N1CCOCC1)c1cccs1,inconclusive: 104%
5,COc1ccc(C(=O)Nc2ccc3c(c2)Cc2ccccc2-3)cc1,inconclusive: 105%
6,CCc1c(C)sc(NC(=O)c2cnn3cccnc23)c1C#N,inconclusive: 96%
7,COc1cc(/C=N/Nc2ncnc3sc4c(c23)CCC4)ccc1O,inconclusive: 74%
8,CCn1c2ccc(C)cc2c2nc3cc(C(=O)O)ccc3nc21,inconclusive: 86%
9,CC(CN1CCOCC1)OC(=O)c1ccc(Br)cc1 (configuration not stated),inconclusive: 105%
10,COCCn1c(SCCN2CCOCC2)nc2c1c(=O)[nH]c(=O)n2C,inconclusive: 103%
11,COc1ccc(Oc2ncnc3c2ncn3Cc2ccccc2)cc1,inconclusive: 94%
12,COCc1nnc(NC(=O)c2cc(OC)c(OC)cc2[N+](=O)[O-])s1,inactive: 98%
13,CCOP(=O)(OCC)C(Nc1ccc(C)cc1)c1ccco1 (configuration not stated),inactive: 100%
14,CSc1nnc(-c2cccc(C)c2)n1N,inconclusive: 106%
15,Cc1cc(C)n(-c2nnc(NC34CC5CC(CC(C5)C3)C4)nn2)n1,inactive: 99%
16,COC(=O)c1cc(C(=O)OC)cc(-n2c(C)cc(C(=O)COC(=O)CNS(=O)(=O)c3ccc(C)cc3)c2C)c1,inactive: 100%
17,COc1ccccc1C/C(N)=N/OC(=O)COc1ccc2ccccc2c1,inconclusive: 95%
18,Cc1cc(=S)cc(C)n1CCO,inactive: 98%
19,O=C(C#Cc1cccc([N+](=O)[O-])c1)c1ccccc1,inactive: 85%
20,CN(C)CCCNc1cn[nH]c(=O)c1Cl,inactive: 98%
21,O=C(c1cc(COc2c(F)cccc2F)on1)N1CCc2ccccc2C1,inconclusive: 93%
22,CCOC(=O)/C(=C/C=C1\Sc2cc(OCC)c(OCC)cc2N1CC)C(C)=O,inconclusive: 76%
23,O=C(c1cc2ccc([N+](=O)[O-])cc2oc1=O)N1CCOCC1,inactive: 99%
24,Cc1ccc(C)c(S(=O)(=O)Nc2ccccc2C(=O)Nc2ccc(S(=O)(=O)Nc3ncccn3)cc2)c1,inactive: 97%
25,CCOC(=O)c1nc(Nc2ccc(C(=O)OC)cc2)c2ccccc2n1,active: 77%

row,SMILES,GTP binding activity
1,Cn1c(N)c(C(=O)COC(=O)CC2CC3CCC2C3)c(=O)n(C)c1=O (configuration not stated),inconclusive: 97%
2,Cc1csc(NC(=O)CSc2ccc3nnc(-c4ccncc4)n3n2)n1,inconclusive: 88%
3,COc1cc(/C=C(/C#N)c2nc3ccccc3[nH]2)ccc1OCc1ccc(C(=O)O)o1,active: 78%
4,COc1ccc(OC)c(NC(=O)c2ccc(-n3cccn3)nc2)c1,inactive: 100%
5,O=Cc1ccc(OCC(=O)Nc2ccccc2C(F)(F)F)cc1,inactive: 98%
6,Cc1ccc(S(=O)(=O)N2CCC(NC(=O)c3ccccc3)CC2)cc1,inactive: 97%
7,CN1C(=O)/C(=C2\SC(=S)N(CC3CCCO3)C2=O)c2ccccc21 (configuration not stated),inactive: 102%
8,O=C(NCc1cccnc1)c1ccc(S(=O)(=O)N2CCCCCC2)cc1,inactive: 99%
9,COc1ccc(-c2csc(NC(=O)Cc3cccc4ccccc34)c2C(=O)O)cc1,active: 78%
10,Clc1ccc(Sc2ccc(/C=N/n3cnnc3)o2)cc1,inconclusive: 106%
11,O=S(=O)(c1ccc(F)cc1)N1CCCC(CO)C1 (configuration not stated),inconclusive: 109%
12,Cc1ccc(-n2c(-c3ccco3)n[nH]c2=S)cc1,inconclusive: 83%
13,CC(=O)Nc1ccc(S(=O)(=O)n2nc(-c3ccc(C)cc3)nc2N)cc1,inconclusive: 107%
14,CCOc1ccc(NC(=O)/C=C/c2ccc(OC)cc2)c([N+](=O)[O-])c1,inconclusive: 101%
15,CC(C)Cc1nc2oc3c(Cl)ncnc3c2c2c1CCC2,inactive: 101%
16,COc1ccccc1C(=O)N/C(=C/c1ccc(Br)cc1)C(=O)N1CCCC1,inactive: 99%
17,Cc1ccc(NC(=S)NN2CCN(C)CC2)c(C)c1,inconclusive: 102%
18,Cc1ccc(S(=O)(=O)N2CCCCC2)cc1NC(=O)C1CCCO1 (configuration not stated),inactive: 96%
19,COC(=O)c1sc2ccccc2c1-n1cccc1C(=O)C(=O)Nc1ccccc1,inconclusive: 96%
20,O=C(NC(=S)Nc1ccc(F)c([N+](=O)[O-])c1)c1ccccc1F,inconclusive: 86%
21,Cc1ccc(S(=O)(=O)c2cc3c(=O)n4ccccc4nc3n(Cc3ccco3)c2=N)cc1C,inactive: 107%
22,Cc1ccc(C(=O)N2CCN(c3ncccn3)CC2)o1,inconclusive: 103%
23,O=C(Nc1ccc(N2CCN(C(=O)c3cccs3)CC2)cc1)c1cccnc1,inactive: 100%
24,CCOC(=O)C1(C)NC(c2ccco2)C2C(=O)N(CC)C(=O)C21 (configuration not stated),inactive: 98%
25,CC(=O)Nc1nc(C)c(-c2csc(Nc3ccccn3)n2)s1,inconclusive: 96%

row,SMILES,GTP binding activity
1,Cc1cccc(-n2ccnc2SCC(=O)Nc2cc(C)on2)c1,inconclusive: 103%
2,CN1CCc2nc3ccc(Cl)cc3c(-c3ccccc3Cl)c2C1,inactive: 93%
3,O=C(NCCCN1CCOCC1)c1ccccc1,inconclusive: 105%
4,COc1ccc(NC(=S)N2CCC(c3nc4ccccc4o3)CC2)c(OC)c1,inactive: 99%
5,CCc1ccc2nc(N)sc2c1,inconclusive: 97%
6,COc1ccc(N2CCC(CNC(=S)Nc3cccc(C)c3)C2)cc1 (configuration not stated),inconclusive: 100%
7,CC(C)NC(=O)/C=C/C(=O)O,inactive: 101%
8,Cc1ccc2cc(C#N)c(NCCNC(=O)C3CC3)nc2c1C,inconclusive: 95%
9,Cc1ccc(CNC(=O)CSc2nc3n[nH]c(C)c3c(=N)n2-c2cccc(C)c2)cc1,inconclusive: 90%
10,COc1cc(C(=O)OC2CCN(C)CC2)cc(OC)c1OC,inconclusive: 102%
11,Cn1ncc(N=Cc2c(O)ccc3ccccc23)c1C(=O)Nc1cccc(Cl)c1,inconclusive: 103%
12,CCn1c(NCc2cccs2)nc2ccccc21,inactive: 100%
13,COc1cc(/C=N/Nc2ccc(S(N)(=O)=O)cc2)cc(OC)c1OC,inactive: 89%
14,O=C(Nc1ccc2c(c1)nc1n2CCSC1)c1ccco1,inconclusive: 96%
15,O=C(CCCO)c1ccc2c(c1)OCCO2,inconclusive: 91%
16,Cc1nnc(-c2ccccc2)[nH]c1=O,inactive: 100%
17,CCN(CC)S(=O)(=O)c1cccc(C(=O)OCC(=O)NC(C)c2ccccc2)c1 (configuration not stated),inactive: 97%
18,CCOc1ccc(-c2cc(C(=O)OC)[nH]n2)cc1,inconclusive: 224%
19,CC(C)(C)c1ccc(C(=O)CC(Sc2ccc(Cl)cc2)C(=O)O)cc1 (configuration not stated),inconclusive: 79%
20,O=C(CCN1C(=O)c2ccccc2C1=O)Nc1ccc(S(=O)(=O)N2CCOCC2)cc1,inactive: 102%
21,COc1ccc(-c2nc(C(F)(F)F)c(OC)o2)cc1OC,inactive: 103%
22,CCOC(=O)C1=C(NC(=O)c2ccc(Br)o2)Nc2ccccc2N=C1,inconclusive: 100%
